PMC3601332
These are yes or no findings as the source states them, for the method shown. Some results given as binding are weak or reduced against the parent protein; the word gives no strength. Where a sequence is shown, tags or fusion partners need not be part of it.

Amino acid sequences for entries named in this document (tags omitted). A change or cut given only in a name is not applied to a line headed by its entry. Residues count along the entry.
UniProt O00220: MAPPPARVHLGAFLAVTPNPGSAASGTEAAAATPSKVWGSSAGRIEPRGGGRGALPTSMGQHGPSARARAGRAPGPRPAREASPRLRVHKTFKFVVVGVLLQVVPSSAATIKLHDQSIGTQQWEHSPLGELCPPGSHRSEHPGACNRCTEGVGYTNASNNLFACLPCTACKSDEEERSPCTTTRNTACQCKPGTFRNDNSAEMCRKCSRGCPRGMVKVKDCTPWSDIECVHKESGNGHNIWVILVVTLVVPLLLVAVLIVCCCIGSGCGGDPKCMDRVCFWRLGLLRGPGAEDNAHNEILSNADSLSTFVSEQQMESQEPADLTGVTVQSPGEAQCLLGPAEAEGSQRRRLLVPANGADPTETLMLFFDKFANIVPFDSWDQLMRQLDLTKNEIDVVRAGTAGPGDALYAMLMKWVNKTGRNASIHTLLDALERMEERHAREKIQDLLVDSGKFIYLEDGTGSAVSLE
TRAIL-R1 expressed on transfected 293T cells: residues 24-468 of O00220
TRAIL-R1:Fc: residues 24-239 of O00220
UniProt O14763: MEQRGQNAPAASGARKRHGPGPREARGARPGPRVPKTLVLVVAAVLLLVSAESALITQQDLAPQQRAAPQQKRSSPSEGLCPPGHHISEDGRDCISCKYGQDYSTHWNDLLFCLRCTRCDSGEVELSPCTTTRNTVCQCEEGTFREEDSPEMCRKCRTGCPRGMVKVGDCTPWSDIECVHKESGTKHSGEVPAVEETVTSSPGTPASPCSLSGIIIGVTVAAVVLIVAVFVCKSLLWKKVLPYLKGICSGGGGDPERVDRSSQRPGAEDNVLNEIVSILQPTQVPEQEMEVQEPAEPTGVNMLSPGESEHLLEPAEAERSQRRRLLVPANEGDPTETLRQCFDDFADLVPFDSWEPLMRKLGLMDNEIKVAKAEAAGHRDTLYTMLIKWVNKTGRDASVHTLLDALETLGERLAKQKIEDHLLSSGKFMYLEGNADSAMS
TRAIL-R2 expressed on transfected 293T cells: residues 56-440 of O14763
TRAIL-R2:Fc: residues 56-210 of O14763
UniProt Q9QZM4, residues 53-381: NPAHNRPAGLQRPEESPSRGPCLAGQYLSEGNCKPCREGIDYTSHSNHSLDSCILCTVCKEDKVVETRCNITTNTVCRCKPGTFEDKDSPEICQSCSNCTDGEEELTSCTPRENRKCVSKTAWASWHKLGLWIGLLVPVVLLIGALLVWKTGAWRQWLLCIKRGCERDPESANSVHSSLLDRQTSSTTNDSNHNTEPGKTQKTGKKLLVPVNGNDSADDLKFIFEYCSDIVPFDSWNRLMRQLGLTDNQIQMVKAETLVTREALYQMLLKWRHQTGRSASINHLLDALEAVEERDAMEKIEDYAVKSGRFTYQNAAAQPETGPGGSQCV

How the values were obtained:
TRAIL-R1:Fc (human) = TRAIL-R1:Fc (human) (UniProt O00220); experiment: ELISA; binding assay between Fc-fusion proteins (Figure S3A); who was immobilised is not told in the main text; both purified
TRAIL-R2:Fc (human) = TRAIL-R2:Fc (human) (UniProt O14763); experiment: as above
[1] = biological target: hTRAIL-R2 expressed on transfected NIH 3T3 cells (human) (UniProt O14763); experiment: flow cytometry on cells; UL141:Fc binding to mouse NIH 3T3 fibroblasts, untransfected or transfected with hTRAIL-R2 (Figure S3B); only the binder purified
[2] = biological target: mouse TRAIL-R2 (mTRAIL-R2) on NIH 3T3 fibroblasts (mouse (endogenous in NIH 3T3)) (UniProt Q9QZM4); experiment: as above
[3] = biological target: TRAIL-R1 expressed on transfected 293T cells (human) (UniProt O00220); experiment: flow cytometry on cells; UL141:Fc protein (~5 ug/ml) used to stain 293T cells transfected with all the known TNFRs; positive controls included for all receptor-ligand interactions (Figure S3C); only the binder purified
[4] = biological target: TRAIL-R2 expressed on transfected 293T cells (human) (UniProt O14763); experiment: as above

B1: UL141:Fc (fusion protein of the UL141 ectodomain with the Fc region of human IgG1) (Fc fusion, UniProt Q6RJQ3 37-278)
chain: DIAEKMWAENYETTSPAPVLVAEGEQVTIPCTVMTHSWPMVSIRARFCRSHDGSDELILDAVKGHRLMNGLQYRLPYATWNFSQLHLGQIFSLTFNVSTDTAGMYECVLRNYSHGLIMQRFVILTQLETLSRPDEPCCTPALGRYSLGDQIWSPTPWRLRNHDCGMYRGFQRNYFYIGRADAEDCWKPACPDEEPDRCWTVIQRYRLPGDCYRSQPHPPKFLPVTPAPPADIDTGMSPWATR
Question: Which binding (TRAIL-R1:Fc (human)) does the source give for B1 here?
Answer: binds

Question: And the binding (TRAIL-R2:Fc (human))?
Answer: binds

Question: And the binding [1]?
Answer: binds

Question: What about the binding [2] of the same binder?
Answer: no binding

Question: What about the binding [3] of the same binder?
Answer: no binding (tested: ∼5 μg/ml)

Question: And the binding [4]?
Answer: binds
